Data taken from the supplement of paper PMC4967469.
Lines with a small IC50 respond at low doses; a limit (>, <) means that the fit lies beyond the doses tested. AUC sums up the same curve from the lowest dose to the 256-fold higher top dose: 1 means no effect, lower means more sensitive. For some assays here: The top dose, if marked as inferred, was calculated from the reported fits.

Legend:
Assay in all cases: Viability of human cancer cell lines after 72 h of drug (GDSC screen)
WHI-P97 = compound: COc1cc2ncnc(Nc3cc(Br)c(O)c(Br)c3)c2cc1OC [WHI-P97]; conditions: top dose 10.24 µM; top dose inferred
Experimental: (§1)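 Human cancer cell lines in 384-well plates, medium with 10% serum, drug for 72 h over a 256-fold dose range (nine 2-fold or five 4-fold steps up to the top dose). Adherent lines were fixed and stained with the nucleic acid dye Syto60, suspension lines read with resazurin; signal relative to control wells, capped at 0 and 100%. One two-parameter sigmoid per drug and line, fitted in a mixed model over all curves with the slope shared within a line.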

QL-XI-92 = compound: C=CC(=O)Nc1cc(NC(=O)c2ccc(C)c(NC(=O)c3ccno3)c2)cc(C(F)(F)F)c1 [QL-XI-92]; conditions: top dose 10.24 µM; top dose inferred
Experimental: as §1

XL-184 = compound: COc1cc2nccc(Oc3ccc(NC(=O)C4(C(=O)Nc5ccc(F)cc5)CC4)cc3)c2cc1OC [XL-184]; conditions: top dose 5.12 µM; top dose inferred
Experimental: as §1

Gefitinib = compound: COc1cc2ncnc(Nc3ccc(F)c(Cl)c3)c2cc1OCCCN1CCOCC1 [Gefitinib]; conditions: top dose 0.5 µM
Experimental: as §1

EHT 1864 = compound: O=c1cc(CN2CCOCC2)occ1OCCCCCSc1ccnc2cc(C(F)(F)F)ccc12 [EHT 1864]; conditions: top dose 10 µM; top dose inferred
Experimental: as §1

NU-7441 = compound: O=c1cc(N2CCOCC2)oc2c(-c3cccc4c3sc3ccccc34)cccc12 [NU-7441]; conditions: top dose 2 µM; top dose inferred
Experimental: as §1

Phenformin = compound: N=C(N)NC(=N)NCCc1ccccc1 [Phenformin]; conditions: top dose 4000 µM; top dose inferred
Experimental: as §1

Vinorelbine = compound: CCC1=C[C@@H]2CN(C1)Cc1c([nH]c3ccccc13)[C@@](C(=O)OC)(c1cc3c(cc1OC)N(C)[C@H]1[C@@](O)(C(=O)OC)[C@H](OC(C)=O)[C@]4(CC)C=CCN5CC[C@]31[C@@H]54)C2 [Vinorelbine]; conditions: top dose 0.064 µM; top dose inferred
Experimental: as §1

AG-014699 = compound: CNCc1ccc(-c2[nH]c3cc(F)cc4c3c2CCNC4=O)cc1 [AG-014699]; conditions: top dose 5 µM; top dose inferred
Experimental: as §1

Row | Cell Line | AUC (WHI-P97) | IC50 (WHI-P97) [µM] | AUC (QL-XI-92) | IC50 (QL-XI-92) [µM] | AUC (XL-184) | IC50 (XL-184) [µM] | AUC (Gefitinib) | IC50 (Gefitinib) [µM] | AUC (EHT 1864) | IC50 (EHT 1864) [µM] | AUC (NU-7441) | IC50 (NU-7441) [µM] | AUC (Phenformin) | IC50 (Phenformin) [µM] | AUC (Vinorelbine) | AUC (AG-014699) | IC50 (AG-014699) [µM] | IC50 (Vinorelbine) [µM]
1 | CCF-STTG1 (glioma, adherent) | 0.983 | > 10.2 | 0.951 | > 10.2 | 0.862 | 4.44 | 0.988 | > 0.5 | 0.954 | > 10 | 0.978 | > 2 | 0.794 | 1850 | 0.616 | 0.987 | > 5 | 
2 | CCK-81 (large intestine, adherent) | 0.852 | 7.22 | 0.97 | > 10.2 | 0.981 | > 5.12 | 0.89 | > 0.5 | 0.901 | > 10 | 0.988 | > 2 | 0.377 | 117 | 0.919 | 0.968 | > 5 | > 0.064
3 | CCRF-CEM (lymphoblastic leukaemia, suspension) | 0.946 | > 10.2 | 0.878 | 7.59 | 0.91 | > 5.12 | 0.978 | > 0.5 | 0.964 | > 10 | 0.924 | > 2 | 0.521 | 282 | 0.526 | 0.949 | > 5 | 0.00464
4 | CHL-1 (melanoma, adherent) | 0.677 | 1.93 | 0.892 | > 10.2 | 0.857 | 3.79 | 0.765 | 0.173 | 0.946 | > 10 | 0.812 | 0.997 | 0.859 | 3030 | 0.51 | 0.986 | > 5 | 0.00424
5 | CHP-212 (neuroblastoma, adherent) | 0.988 | > 10.2 | 0.892 | > 10.2 | 0.985 | > 5.12 | 0.985 | > 0.5 | 0.928 | > 10 | 0.924 | > 2 | 0.617 | 509 | 0.777 | 0.933 | > 5 | 0.0237
6 | CHSA0108 (chondrosarcoma, adherent) | 0.793 | 5.53 | 0.978 | > 10.2 | 0.81 | 3.23 | 0.977 | > 0.5 | 0.982 | > 10 | 0.95 | > 2 | 0.177 | 21.8 | 0.71 | 0.967 | > 5 | 0.0174
7 | CHSA8926 (chondrosarcoma, adherent) | 0.937 | > 10.2 | 0.978 | > 10.2 | 0.858 | > 5.12 | 0.98 | > 0.5 | 0.98 | > 10 | 0.971 | > 2 | 0.936 | > 4000 | 0.795 | 0.98 | > 5 | 0.0448
8 | COLO-678 (large intestine, semi-adherent) | 0.985 | > 10.2 | 0.982 | > 10.2 | 0.984 | > 5.12 | 0.913 | > 0.5 | 0.962 | > 10 | 0.981 | > 2 | 0.966 | > 4000 | 0.914 | 0.981 | > 5 | > 0.064
9 | COLO-679 (melanoma, adherent) | 0.976 | > 10.2 | 0.955 | > 10.2 | 0.985 | > 5.12 | 0.984 | > 0.5 | 0.885 | > 10 | 0.943 | > 2 | 0.771 | 1720 | 0.415 | 0.985 | > 5 | 0.00227
10 | COLO-680N (oesophagus, adherent) | 0.983 | > 10.2 | 0.948 | > 10.2 | 0.985 | > 5.12 | 0.967 | > 0.5 | 0.968 | > 10 | 0.974 | > 2 | 0.986 | > 4000 | 0.757 | 0.972 | > 5 | 0.0259
11 | COR-L23 (large cell lung carcinoma, adherent) | 0.96 | > 10.2 | 0.934 | > 10.2 | 0.959 | > 5.12 | 0.983 | > 0.5 | 0.973 | > 10 | 0.982 | > 2 | 0.814 | 2110 | 0.621 | 0.927 | > 5 | 0.00853
12 | CP50-MEL-B (melanoma, adherent) | 0.965 | > 10.2 | 0.988 | > 10.2 | 0.89 | > 5.12 | 0.986 | > 0.5 | 0.956 | > 10 | 0.95 | > 2 | 0.719 | 1030 | 0.824 | 0.988 | > 5 | 0.0374
13 | CS1 (bone, adherent) | 0.963 | > 10.2 | 0.838 | 8.08 | 0.843 | 4.25 | 0.984 | > 0.5 | 0.955 | > 10 | 0.973 | > 2 | 0.805 | 2300 | 0.779 | 0.945 | > 5 | 0.0294
14 | Ca9-22 (head and neck, adherent) | 0.805 | 4.73 | 0.977 | > 10.2 | 0.958 | > 5.12 | 0.884 | 0.47 | 0.95 | > 10 | 0.963 | > 2 | 0.858 | 2900 | 0.569 | 0.954 | > 5 | 0.00609
15 | Ca-Ski (cervix, adherent) | 0.95 | > 10.2 | 0.889 | > 10.2 | 0.886 | > 5.12 | 0.935 | > 0.5 | 0.983 | > 10 | 0.952 | > 2 | 0.71 | 1060 | 0.697 | 0.972 | > 5 | 0.0154
